Reference: the supplement of paper PMC4967469

What was measured:
Test in all cases: Viability of human cancer cell lines after 72 h of drug (GDSC screen)
SB-505124 = compound: Cc1cccc(-c2[nH]c(C(C)(C)C)nc2-c2ccc3c(c2)OCO3)n1 [SB-505124]; details: top dose 10 µM; top dose inferred
Protocol: (§1)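 Human cancer cell lines in 384-well plates, medium with 10% serum, drug for 72 h over a 256-fold dose range (nine 2-fold or five 4-fold steps up to the top dose). Adherent lines were fixed and stained with the nucleic acid dye Syto60, suspension lines read with resazurin; signal relative to control wells, capped at 0 and 100%. One two-parameter sigmoid per drug and line, fitted in a mixed model over all curves with the slope shared within a line.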

BX-795 = compound: O=C(NCCCNc1nc(Nc2cccc(NC(=O)N3CCCC3)c2)ncc1I)c1cccs1 [BX-795]; details: top dose 5 µM; top dose inferred
Protocol: as §1

UNC0638 = compound: COc1cc2c(NC3CCN(C(C)C)CC3)nc(C3CCCCC3)nc2cc1OCCCN1CCCC1 [UNC0638]
Protocol: as §1

WH-4-023 = compound: COc1ccc(N(C(=O)Oc2c(C)cccc2C)c2ccnc(Nc3ccc(N4CCN(C)CC4)cc3)n2)c(OC)c1 [WH-4-023]; details: top dose 5.12 µM; top dose inferred
Protocol: as §1

PI-103 = compound: Oc1cccc(-c2nc(N3CCOCC3)c3oc4ncccc4c3n2)c1 [PI-103]; details: top dose 10.24 µM
Protocol: as §1

GSK690693 = compound: CCn1c(-c2nonc2N)nc2c(C#CC(C)(C)O)ncc(OC[C@H]3CCCNC3)c21 [GSK690693]; details: top dose 10.24 µM; top dose inferred
Protocol: as §1

[1] = top dose 20 µM, screen: GDSC drug entry 1236, top dose inferred
[2] = top dose 40 µM, screen: GDSC drug entry 245

Cell Line | AUC (SB-505124) | IC50 (SB-505124) [µM] | AUC (BX-795) | IC50 (BX-795) [µM] | AUC (UNC0638; [1]) | IC50 (UNC0638; [1]) [µM] | AUC (UNC0638; [2]) | IC50 (UNC0638; [2]) [µM] | AUC (WH-4-023) | IC50 (WH-4-023) [µM] | AUC (PI-103) | IC50 (PI-103) [µM] | AUC (GSK690693) | IC50 (GSK690693) [µM]
LNCaP-Clone-FGC (prostate, adherent) | 0.88 | > 10 | 0.942 | > 5 | 0.74 | 6.79 | 0.631 | 6.05 | 0.972 | > 5.12 | 0.32 | 0.186 | 0.233 | 0.0945
LOXIMVI (melanoma, semi-adherent) | 0.976 | > 10 | 0.756 | 1.54 | 0.782 | 7.4 | 0.784 | 15.1 | 0.963 | > 5.12 | 0.789 | 3.99 | 0.988 | > 10.2
MOLM-13 (acute myeloid leukaemia, suspension) | 0.979 | > 10 | 0.404 | 0.173 | 0.749 | 6.11 | 0.578 | 4.02 | 0.889 | > 5.12 | 0.146 | 0.0559 | 0.664 | 1.77
MZ7-mel (melanoma, adherent) | 0.985 | > 10 | 0.985 | > 5 | 0.744 | 6.44 | 0.569 | 3.9 | 0.874 | > 5.12 | 0.914 | > 10.2 | 0.984 | > 10.2
NB7 (neuroblastoma, adherent) | 0.882 | > 10 | 0.846 | 3.9 | 0.985 | > 20 | 0.846 | 31.2 | 0.965 | > 5.12 | 0.499 | 0.638 | 0.976 | > 10.2
NB-4 (acute myeloid leukaemia, suspension) | 0.99 | > 10 | 0.811 | 2.08 | 0.74 | 5.16 | 0.525 | 2.89 | 0.989 | > 5.12 | 0.304 | 0.204 | 0.913 | 10.2
NCI-H128 (small cell lung carcinoma, suspension) | – | – | – | – | – | – | – | – | 0.956 | > 5.12 | – | – | – | –
NCI-H716 (large intestine, suspension) | 0.952 | > 10 | – | – | 0.798 | 12.5 | 0.731 | 13.7 | 0.945 | > 5.12 | 0.787 | 5.73 | 0.943 | > 10.2
NCI-H748 (small cell lung carcinoma, suspension) | – | – | – | – | – | – | 0.592 | 4.78 | 0.934 | > 5.12 | 0.511 | 0.691 | 0.958 | > 10.2
NCI-H1355 (lung adenocarcinoma, adherent) | 0.914 | > 10 | 0.887 | > 5 | 0.906 | > 20 | 0.964 | > 40 | 0.746 | 2.28 | 0.914 | > 10.2 | 0.978 | > 10.2
NCI-H2171 (small cell lung carcinoma, suspension) | – | – | – | – | – | – | 0.856 | 25.6 | 0.987 | > 5.12 | 0.448 | 0.471 | 0.883 | 8.43
NCI-H2196 (small cell lung carcinoma, adherent) | – | – | – | – | – | – | 0.777 | 16.9 | 0.965 | > 5.12 | 0.518 | 0.719 | 0.806 | 5.54
NK-92MI (lymphoid neoplasm, suspension) | – | – | – | – | – | – | – | – | 0.777 | 1.92 | – | – | – | –
RPMI-8226 (myeloma, suspension) | 0.979 | > 10 | 0.836 | 2.73 | 0.688 | 3.88 | 0.606 | 4.69 | 0.976 | > 5.12 | 0.331 | 0.233 | 0.979 | > 10.2
RS4-11 (leukaemia, suspension) | 0.985 | > 10 | 0.65 | 0.783 | 0.798 | 8.61 | 0.553 | 3.45 | 0.97 | > 5.12 | 0.126 | 0.0483 | 0.471 | 0.538
SCC-3 (B-cell lymphoma, suspension) | – | – | – | – | – | – | 0.79 | 12.8 | 0.994 | > 5.12 | 0.656 | 1.53 | 0.997 | > 10.2
SIG-M5 (acute myeloid leukaemia, suspension) | – | – | – | – | – | – | 0.554 | 3.38 | 0.983 | > 5.12 | 0.042 | < 0.04 | 0.632 | 1.34
SKM-1 (haematopoietic neoplasm, suspension) | 0.966 | > 10 | 0.668 | 0.964 | 0.68 | 4.22 | – | – | 0.984 | > 5.12 | – | – | – | –
SU-DHL-1 (anaplastic large cell lymphoma, suspension) | – | – | – | – | – | – | 0.915 | 28.7 | 0.995 | > 5.12 | 0.204 | 0.121 | 0.945 | 9.59
SW872 (soft tissue, adherent) | 0.977 | > 10 | – | – | 0.93 | > 20 | 0.887 | 37.4 | 0.653 | 0.811 | 0.843 | 6.23 | 0.989 | > 10.2
TALL-1 (T-cell lymphoblastic leukaemia, suspension) | – | – | – | – | – | – | 0.753 | 12.8 | 0.982 | > 5.12 | 0.895 | > 10.2 | 0.99 | > 10.2
TE-441-T (rhabdomyosarcoma, adherent) | – | – | – | – | – | – | – | – | 0.983 | > 5.12 | 0.984 | > 10.2 | 0.989 | > 10.2
TGBC24TKB (biliary tract, adherent) | 0.952 | > 10 | – | – | 0.972 | > 20 | 0.905 | > 40 | 0.621 | 0.672 | 0.985 | > 10.2 | 0.987 | > 10.2

IC50 is the fitted dose that halves viability relative to control wells, and lower means more sensitive; where the fit passes the top or lowest dose, that dose stands as a limit. AUC, from the same fit, is the share of area under the viability curve across the 256-fold dose range; values near 1 show little effect. For some assays here: A top dose marked as inferred comes from the curve model; the source does not state it. For some assays here: Where an entry number is given, a second screen of the drug exists; the two often differ.
